Reference: US20240076346A1 (KAHR MEDICAL, published 2024)
Blank lines part the entries; values can stand above or below the binder they belong to.

Columns and labels:
[1] = target: T1, Human CD47 protein HIS Tag (recombinant, plate bound) (human, UniProt Q08722 part only); assay: ELISA on plate bound recombinant human CD47, detection with anti-human IgG4-HRP
T1 construct: Bought reagent; not shown: His tag
Description: (§1) Supernatants containing the heterodimers were incubated in CD47 pre-coated 96-well plates. Binding was detected by incubation with an anti-human IgG1- or IgG4-HRP antibody, detection with a TMB substrate, according to a standard ELISA protocol using a plate reader (Thermo Scientific, Multiscan FC) at 450 nm, with reference at 620 nm. O.D. values were used to create a binding curve graph with a GraphPad Prism software.
(§2) Binding of heterodimers to their counterpart ligands/receptors by Sandwich ELISA—Flat bottom 96-wells plates were pre-coated with receptor/ligand of one arm of the analyzed-heterodimer by incubating overnight at 4° C. with a recombinant counterpart protein such as CD47 protein, PDL1 protein, HLA-G protein, or PVR protein, followed by blocking and washing. Serially diluted cell culture supernatant or purified protein samples containing the produced heterodimers were added to the corresponding pre-coated wells. […] Thereafter, in case where the detected Ab was not HRP-labeled, HRP conjugated secondary Ab or streptavidin-HRP was added. Detection was effected with a TMB substrate according to standard ELISA protocol using a plate reader (Thermo Scientific, Multiscan FC) at 450 nm, with reference at 620 nm. […]

[2] = target: T2, human PDL1 expressed on cells (human, UniProt Q9NZQ7); assay: flow cytometry on DLD1-PDL1 overexpressing cells against DLD1 WT, supernatant in dilutions, detection with APC anti-PD1 antibody
T2 construct: whole, on cells
Description: Following incubation of the cells with DSP402, binding of the heterodimer to the DLD1 PDL1 overexpressing cell line was determined by immuno-staining of its PD1 domain using an anti-PD1 antibody, followed by flow cytometry analysis. DLD-1 WT cells were used as a negative cell control for the binding assay. MFI values are presented and were used to create a binding curve graph with a FlowJo software.
Binding of the PD1 domain of the SIGLEC-10-PD1 heterodimer referred to herein as “DSP402” to human PDL1 was determined using DLD1-PDL1 cell line overexpressing PDL1 and an APC conjugated anti-PD1 as a detector antibody (FIG. 11A). DLD1-WT cells, which express low levels of endogenous PDL1, served as a control (FIG. 11A).

[3] = target: T3, Human PDL-1-Fc (recombinant, plate bound) (human, UniProt Q9NZQ7 part only, limits assumed); assay: bridging ELISA: plate bound PDL1-Fc captures DSP502, detected with human CD155 (PVR)-mouse IgG2a Fc and a peroxidase conjugate
T3 construct: also called hrPDL1-Fc protein; Human PDL-1 FC Tag; not shown: Fc tag
Description: Detection was effected with streptavidin HRP followed by adding a TMB substrate according to a standard ELISA protocol using a Plate reader (Thermo Scientific, Multiscan FC) at 450 nm, with reference at 540 nm.
Simultaneous binding of TIGIT-PD1 heterodimer to its counterparts, as determined by ELISA—Flat bottom 96-wells plates were pre-coated with hrPDL1-Fc protein, followed by blocking and washing. Serially diluted purified TIGIT-PD1 heterodimer samples were added to the corresponding pre-coated wells. Following incubation and an additional washing step, a detection protein—human CD155 (PVR) conjugate to mouse IgG2a Fc, was added and allowed to bind to the captured protein. Followed an additional wash, peroxidase-conjugated AffiniPure Goat Anti-Mouse IgG was added and after incubation and wash detection was effected with a TMB substrate according to a standard ELISA protocol using a plate reader (Thermo Scientific, Multiscan FC) at 450 nm, with reference at 620 nm.

[4] = target: T4, mouse PDL1 expressed on cells (mouse, UniProt Q9EP73); assay: flow cytometry on Renca cells (mouse PD-L1 and mouse PVR), with or without blocking antibodies, detection with PE anti-human IgG1
T4 construct: whole, on cells; also called mPDL1
From the text: MFI values presented were used to create binding curve graphs with a FlowJo software.
Dose dependent binding of the PD1 and TIGIT domains of DSP502 to mouse PDL1 and mouse PVR expressed on cells was also observed, using a AB12 cell line endogenously expressing PVR (FIGS. 22A-B, a PE conjugated anti-human IgG1 antibody was used as a detector antibody) or Renca, cell line endogenously expressing both PD-L1 and PVR (FIGS. 21A-B, a PE conjugated anti-human IgG1 antibody was used as a detector antibody).

[5] = target: T2, human PDL1 expressed on cells; assay: flow cytometry on K562 PD-L1 cells, detection with APC anti-human TIGIT
Description: MFI values presented were used to create binding curve graphs with a FlowJo software. […] The surface expression levels of PDL1 and PVR were determined by immuno-staining of the cells with a fluorescently labeled anti-PDL1 or anti-PVR antibody, as indicated, followed by flow cytometry analysis.
In addition, dose dependent binding of the PD1 and TIGIT domains of DSP502 and another TIGIT-PD1 heterodimer referred to herein as “DSP502V4” (which contains a LALA mutation on the Fc-IgG1 domains) to human PDL1 and human PVR, respectively, were determined using a K562 PD-L1 cell line overexpressing PD-L1, a K562 cell line overexpressing PVR, as well as K562 PVR/PD-L1 cell line overexpressing both PVR and PD-L1 (FIGS. 19A-I).

[6] = target: T1, Human CD47 protein HIS Tag …; assay: ELISA on plate bound recombinant human CD47, detection with anti-human IgG1-HRP
Description: as §1, §2

[7] = target: T5, human CD47 expressed on cells (human, UniProt Q08722); assay: flow cytometry on JEG-3 cells (CD47 and HLA-G), with or without CD47 blocker, detection with anti-human IgG1
T5 construct: whole, on cells; also called hCD47
Description: Binding of the heterodimers to the cell line was determined following incubation with or without a blocking antibody, as indicated, by immuno-staining of the IgG backbone using anti human-IgG1 antibody, followed by flow cytometry analysis. GMFI values are presented and were used to create binding curve graphs with the GraphPad Prism software.
In the same manner, specific dose dependent binding of the LILRB2 domain to human HLA-G and the specific dose dependent binding of the SIRPα domain to CD47 of other SIRPα-LILRB2 heterodimers referred to herein as “DSP216V3”, “DSP216V4”, “DSP216V5” and “DSP216V6” were determined using a HT1080-HLA-G cell line overexpressing HLA-G or JEG3 cell line (both lines expressing both human CD47 and human HLA-G) using an anti-human HLA-G blocking antibody or an anti-human CD47 blocking antibody (FIGS. 16C-17F, an APC conjugated anti-human IgG1 or an APC conjugated anti-SIRPα antibody was used as a detector antibody).

T2 sequence (Q9NZQ7 19-290): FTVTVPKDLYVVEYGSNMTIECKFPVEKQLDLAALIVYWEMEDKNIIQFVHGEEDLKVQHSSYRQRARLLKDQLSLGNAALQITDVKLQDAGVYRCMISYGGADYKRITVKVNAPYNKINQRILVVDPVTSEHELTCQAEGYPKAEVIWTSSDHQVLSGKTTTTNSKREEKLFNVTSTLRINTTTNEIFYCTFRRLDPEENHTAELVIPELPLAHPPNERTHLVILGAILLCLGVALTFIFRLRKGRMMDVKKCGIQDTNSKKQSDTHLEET
T4 sequence (Q9EP73 19-290): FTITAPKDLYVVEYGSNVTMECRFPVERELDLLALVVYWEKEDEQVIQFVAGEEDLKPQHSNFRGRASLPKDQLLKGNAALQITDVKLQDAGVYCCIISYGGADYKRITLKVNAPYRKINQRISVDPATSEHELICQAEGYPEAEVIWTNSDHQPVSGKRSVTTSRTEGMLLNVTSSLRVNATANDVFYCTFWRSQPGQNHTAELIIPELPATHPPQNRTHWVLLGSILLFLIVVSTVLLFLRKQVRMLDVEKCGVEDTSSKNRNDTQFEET

B1: SIRPα-LILRB2 heterodimer DSP216V1 (Fc fusion)
chain 1: [letters of about 350 residues not shown]GGGGSGGGGS[letters of human IgG4 Fc with S228P L235E Y349C T366W (EU numbers) not shown]
chain 2: QTGTIPKPTLWAEPDSVITQGSPVTLSCQGSLEAQEYRLYREKKSASWITRIRPELVKNGQFHIPSITWEHTGRYGCQYYSRARWSELSDPLVLVMTGAYPKPTLSAQPSPVVTSGGRVTLQCESQVAFGGFILCKEGEEEHPQCLNSQPHARGSSRAIFSVGPVSPNRRWSHRCYGYDLNSPYVWSSPSDLLELLVPGVSKKPSLSVQPGPVVAPGESLTLQCVSDVGYDRFVLYKEGERDLRQLPGRQPQAGLSQANFTLGPVSRSYGGQYRCYGAHNLSSECSAPSDPLDILITGQIRGTPFISVQPGPTVASGENVTLLCQSWRQFHTFLLTKAGAADAPLRLRSIHEYPKYQAEFPMSPVTSAHAGTYRCYGSLNSDPYLLSHPSEPLELVVSGGGGSGGGGSGGGGSESKYGPPCPPCPAPEFEGGPSVFLFPPKPKDTLMISRTPEVTCVVVDVSQEDPEVQFNWYVDGVEVHNAKTKPREEQFNSTYRVVSVLTVLHQDWLNGKEYKCKVSNKGLPSSIEKTISKAKGQPREPQVYTLPPSQCEMTKNQVSLSCAVKGFYPSDIAVEWESNGQPENNYKTTPPVLDSDGSFFLVSRLTVDKSRWQEGNVFSCSVMHEALHNHYTQKSLSLSLGK
notes: Knob-into-hole IgG4 Fc heterodimer made in Expi293F; tested as crude supernatant and as purified protein
binding result [1]: binds

B2: SIRPα-LILRB2 heterodimer DSP216V4 (Fc fusion)
chain 1: EEELQVIQPDKSVLVAAGETATLRCTATSLIPVGPIQWFRGAGPGRELIYNQKEGHFPRVTTVSDLTKRNNMDFSIRIGNITPADAGTYYCVKFRKGSPDDVEFKSGAGTELSVRAKGGGGSGGGGS[letters of human IgG4 Fc with S228P L235E Y349C T366W (EU numbers) not shown]
chain 2: B1 chain 2
notes: Knob-into-hole IgG4 Fc heterodimer made in Expi293F
binding result [1]: binds

B4: TIGIT-PD1 heterodimer DSP502 (Fc fusion)
chain 1: MTGTIETTGNISAEKGGSIALQCHLSSTTAQVTQVNWEQQDQLLAISNADLGWHISPSFKDRVAPGPGLGLTLQSLTVNDTGEYFCIYHTYPDGTYTGRIFLEVLESSVAEHGGGGSGGGGS[letters of human IgG1 Fc with changes not shown]
chain 2: DSPDRPWNPPTFSPALLVVTEGDNATFTCSFSNTSESFVLNWYRMSPSNQTDKLAAFPEDRSQPGQDSRFRVTQLPNGRDFHMSVVRARRNDSGTYLCGAISLAPKAQIKESLRAELRVTERRAEVPTAHPSPSPRPAGQGGGGSGGGGS[letters of human IgG1 Fc with changes not shown]
notes: Knob-into-hole IgG1 Fc heterodimer made in Expi293F; tested as supernatant and as purified protein; also called PD1-TIGIT heterodimer
EC50 (read off the curve) [3]: ~5 mg/L | binding result [4]: binds

More lines, now with the values ahead:

binding result [2]: binds
B3: SIGLEC10-PD1 heterodimer DSP402 (Fc fusion)
chain 1: DGRFWIRVQESVMVPEGLSISVPCSFSYPRQDWTGSTPAYGYWFKAVTETTKGAPVATNHQSREVEMSTRGRFQLTGDPAKGNCSLVIRDAQMQDESQYFFRVERGSYVRYNFMNDGFFLKVTALTQKGGGGSGGGGSGGGGS[letters of human IgG1 Fc with changes not shown]
chain 2: DSPDRPWNPPTFSPALLVVTEGDNATFTCSFSNTSESFVLNWYRMSPSNQTDKLAAFPEDRSQPGQDSRFRVTQLPNGRDFHMSVVRARRNDSGTYLCGAISLAPKAQIKESLRAELRVTERRAEVPTAHPSPSPRPAGQGGGGSGGGGS[letters of human IgG1 Fc with changes not shown]
notes: Knob-into-hole IgG1 Fc heterodimer made in Expi293F

binding result [5]: binds
B5: TIGIT-PD1 heterodimer DSP502V4 (Fc fusion)
chain 1: MTGTIETTGNISAEKGGSIALQCHLSSTTAQVTQVNWEQQDQLLAISNADLGWHISPSFKDRVAPGPGLGLTLQSLTVNDTGEYFCIYHTYPDGTYTGRIFLEVLESSVAEHGGGGSGGGGS[letters of human IgG1 Fc with changes not shown]
chain 2: DSPDRPWNPPTFSPALLVVTEGDNATFTCSFSNTSESFVLNWYRMSPSNQTDKLAAFPEDRSQPGQDSRFRVTQLPNGRDFHMSVVRARRNDSGTYLCGAISLAPKAQIKESLRAELRVTERRAEVPTAHPSPSPRPAGQGGGGSGGGGSEPKSSDKTHTCPPCPAPEAAGGPSVFLFPPKPKDTLMISRTPEVTCVVVDVSHEDPEVKFNWYVDGVEVHNAKTKPREEQYNSTYRVVSVLTVLHQDWLNGKEYKCKVSNKALPAPIEKTISKAKGQPREPQVCTLPPSRDELTKNQVSLSCAVKGFYPSDIAVEWESNGQPENNYKTTPPVLDSDGSFFLVSKLTVDKSRWQQGNVFSCSVMHEALHNHYTQKSLSLSPGK

binding result [6]: binds | binding result [7]: binds
B6: SIRPα-LILRB2 heterodimer DSP216V3 (Fc fusion)
chain 1: EEELQVIQPDKSVLVAAGETATLRCTATSLIPVGPIQWFRGAGPGRELIYNQKEGHFPRVTTVSDLTKRNNMDFSIRIGNITPADAGTYYCVKFRKGSPDDVEFKSGAGTELSVRAKGGGGSGGGGS[letters of human IgG1 Fc with changes not shown]
chain 2: QTGTIPKPTLWAEPDSVITQGSPVTLSCQGSLEAQEYRLYREKKSASWITRIRPELVKNGQFHIPSITWEHTGRYGCQYYSRARWSELSDPLVLVMTGAYPKPTLSAQPSPVVTSGGRVTLQCESQVAFGGFILCKEGEEEHPQCLNSQPHARGSSRAIFSVGPVSPNRRWSHRCYGYDLNSPYVWSSPSDLLELLVPGVSKKPSLSVQPGPVVAPGESLTLQCVSDVGYDRFVLYKEGERDLRQLPGRQPQAGLSQANFTLGPVSRSYGGQYRCYGAHNLSSECSAPSDPLDILITGQIRGTPFISVQPGPTVASGENVTLLCQSWRQFHTFLLTKAGAADAPLRLRSIHEYPKYQAEFPMSPVTSAHAGTYRCYGSLNSDPYLLSHPSEPLELVVSGGGGSGGGGSGGGGS[letters of human IgG1 Fc with changes not shown]
notes: as for B3
